In PubChem BioAssay AID485367 (National Center for Advancing Translational Sciences (NCATS), 2010):
The whole screen tested about 330,000 compounds, of which about 560 (0.17%) were called active. Inconclusive means that the source gave no clear call. Such entries were picked first, then a sample of the others. Calls come from the whole dose curve; as a rule, active = well fitted inhibition curve with a large enough effect; inconclusive = small, poorly fitted or top-dose-only effect, or effect the other way; inactive = flat fitted curve, though single readings scatter. Potencies of inconclusive entries are left out as doubtful fits.

Target: ATP-dependent 6-phosphofructokinase (Trypanosoma brucei brucei) (UniProt O15648)
Assay: qHTS Assay to Find Inhibitors of T. brucei phosphofructokinase; note: nearly all actives have a fitted effect of over 60% in size;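 for activity, negative = inhibition: 0% = uninhibited 1x PFK enzyme wells and -100% = no-enzyme wells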
Details: T. brucei PFK, ADP-Glo luminescence; activity, negative = inhibition: at 57.5 µM (top of the series)
Outline: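 Luminescent ADP detection (ADP-Glo, two-step: ATP depletion then ADP-to-ATP conversion for luciferase) reported PFK activity after 45 min room-temperature reaction of 1.25 nM enzyme with 0.5 mM F6P and 0.1 mM ATP at pH 8.0.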
Potency is the fitted concentration of half-maximal effect; tags give direction and shape of the fitted curve.

Sequence of UniProt O15648 (O15648 whole entry, looked up): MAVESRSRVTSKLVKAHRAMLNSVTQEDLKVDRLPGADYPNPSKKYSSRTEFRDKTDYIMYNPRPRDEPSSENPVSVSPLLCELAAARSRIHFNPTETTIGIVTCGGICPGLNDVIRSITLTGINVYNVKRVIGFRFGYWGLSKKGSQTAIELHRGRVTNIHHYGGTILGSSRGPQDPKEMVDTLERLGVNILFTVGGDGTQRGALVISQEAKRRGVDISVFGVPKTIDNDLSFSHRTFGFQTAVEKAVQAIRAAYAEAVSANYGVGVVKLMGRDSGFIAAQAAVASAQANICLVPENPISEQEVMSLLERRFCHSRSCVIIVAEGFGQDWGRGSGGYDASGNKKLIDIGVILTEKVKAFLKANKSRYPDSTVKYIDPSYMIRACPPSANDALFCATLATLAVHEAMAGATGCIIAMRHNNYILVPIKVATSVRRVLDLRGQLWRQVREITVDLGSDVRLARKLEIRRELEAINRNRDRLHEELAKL

SMILES | Potency | activity, negative = inhibition
COc1cccc(C(=O)NNC(=O)Cc2ccc([N+](=O)[O-])cc2)c1 | inconclusive [falling, partial curve] | 
Nc1ncc2[nH]cnc2n1 | inactive | 
CC(C)CCNC(=O)c1c(N)n(CC2CCCO2)c2nc3ccccc3nc12 (stereo unspecified) |  | inactive: -1.78%
CC(C)CC(=O)NC(Oc1ccc(Cl)cc1)C(Cl)(Cl)Cl (stereo unspecified) |  | inactive: -4.22%
Cc1cc(C)cc(N2C(=O)NC(=O)/C(=C\c3cccn3-c3ccccc3)C2=O)c1 | inconclusive [activator, partial curve, poor fit] | 
O=C1c2ccccc2C(=O)N1SC1CCCCC1 | inconclusive [falling, partial curve] | 
Cc1ccc(N2C(=O)NC(=O)/C(=C\C=C\c3ccco3)C2=O)cc1C | inconclusive [falling, single point] | 
Cc1ccc(S(=O)(=O)c2nc(-c3ccccc3Cl)oc2N(C)C2CCN(C)CC2)cc1 |  | inactive: 0.262%
Cc1ccc(C=C2C(Cl)=C(Cl)C(Cl)=C2Cl)cc1 | inconclusive [falling, single point] | 
Cc1ccc(N2C(=O)NC(=O)/C(=C/c3ccc(-c4ccc(C(=O)O)c(Cl)c4)o3)C2=O)cc1 |  | inactive: 26.5%
Cc1ccc(C)c(-c2nnc(NC(=O)CS(=O)(=O)c3ccccc3)o2)c1 | inconclusive [activator, partial curve] | 
O=C(NNC(=O)c1ccccc1Br)c1ccc2nc[nH]c2c1 | active: 21.3 µM | 
Cc1cccc(N2C(=O)NC(=O)/C(=C/c3ccc([N+](=O)[O-])o3)C2=O)c1 | inconclusive [falling, single point] | 
COc1cc(/C=C2/C(=O)NC(=O)N(c3ccccc3)C2=O)ccc1O |  | inactive: 15.9%
O=C(Cn1ncc2c3ccccc3n(Cc3ccc(F)cc3)c2c1=O)N1CCC2(CC1)OCCO2 |  | inactive: -1.1%
COP(=O)(OC)/C(C=O)=N/Nc1ccc([N+](=O)[O-])cc1 |  | inactive: -2.99%
O=c1c2ccccc2nc2n1CCC2 | inconclusive [falling, partial curve] | 
Nc1nc(N)c2nc(CNc3ccc(C(=O)NC(CCC(=O)O)C(=O)O)cc3)cnc2n1 (stereo unspecified) | inconclusive [falling, single point] | 
COc1ccc(-c2nn(CCC#N)cc2C(=O)O)cc1 | inconclusive [activator, single point] | 
CN1CC(C(=O)c2ccc([N+](=O)[O-])cc2)C(c2ccc(Cl)cc2)C1 (stereo unspecified) |  | inactive: 8.17%
CC(=O)CC(c1ccccc1[N+](=O)[O-])c1c(O)c2ccccc2oc1=O (stereo unspecified) |  | inactive: -0.238%
CCOC(=O)C1CCN(/C=C2/C(=O)NC(=O)N(Cc3ccco3)C2=O)CC1 | inconclusive [falling, partial curve] | 
COc1cc([C@@H]2c3cc4c(cc3[C@@H](OC)[C@H]3COC(=O)[C@H]23)OCO4)cc(OC)c1O |  | inactive: 0.796%
CC(Cc1ccccc1)NC(=O)NC(C)Cc1ccccc1 (stereo unspecified) |  | inactive: -0.16%
Fc1ccc(CCNCc2cccc(Cl)c2)cc1 |  | inactive: -22.6%
O=C(O)c1ccccc1NS(=O)(=O)c1cccc(N=Nc2c(O)[nH]c(=S)[nH]c2=O)c1 | inconclusive [activator, partial curve] | 

SMILES | Potency | activity, negative = inhibition
CCCC[N+]12C3C[C@H](C4[C@H](O)[C@]5(C[C@@H]41)c1ccccc1N(C)[C@@H]35)[C@H](CC)[C@H]2O (stereo partly specified) |  | inactive: 5.2%
O=C(N/N=C/c1c(O)n(CCc2ccccc2)c(=O)[nH]c1=O)c1ccncc1 |  | inactive: -0.0022%
CNC(=O)O/N=C/c1nn(C(=O)C(C)(C)C)cc1Br |  | inactive: -1.21%
CCOc1cc2c(cc1OCC)-n1cccc1C(c1cc(OC)ccc1F)NC2 (stereo unspecified) |  | inactive: -10.6%
O=C(CN1CCCC1)Nc1ccc(Cl)cc1C(=O)c1ccccc1 |  | inactive: -0.0605%
COC(=O)C1=C(c2ccc(OC(F)(F)F)cc2)C[C@@H]2CC[C@H]1N2C(=O)NCCNC(C)=O | inconclusive [falling, single point] | 
Cc1nn(Cc2ccccc2)c(C)c1C=C1C(=O)NC(=S)NC1=O |  | inactive: -3.95%
O=S(=O)(NC1CCCCC1)OCC(Cl)(Cl)Cl |  | inactive: 6.9%
CCCCn1c(O)c(/C=C2\C=Nc3ccccc32)c(=O)[nH]c1=O | inconclusive [activator, single point] | 
O=C1NC(=O)N(Cc2ccccc2)C(=O)/C1=C/c1cnn(-c2ccccc2)c1 | inconclusive [falling, full curve, poor fit] | 
CC(C)[C@@H]1NC(=O)c2cc([N+](=O)[O-])cc(I)c2NCCCC[C@@H](C(=O)NC(CC(=O)O)C(N)=O)NC(=O)[C@H](CO)NC1=O (stereo partly specified) | inconclusive [falling, single point] | 
Cc1ccc([N+](=O)[O-])cc1N | inconclusive [falling, single point] | 
O=c1[nH]c(=O)n(C2CCCCCC2)c(O)c1C=NCCCN1CCOCC1 |  | inactive: 1.1%
NC(=O)c1ccc(OCCC(O)N2CC=C(c3ccc(F)cc3)CC2)cc1 (stereo unspecified) | inconclusive [falling, single point] | 
CC1CCCCC1NC(=O)CNC(=S)N1CC2CC(C1)c1cccc(=O)n1C2 (stereo unspecified) |  | inactive: -0.0779%
O=C(OCc1ccco1)c1ccc(S(=O)(=O)N2CCCCC2)cc1 | active: 23.9 µM | 
CSc1ccc(Cl)c(C(=O)OCC(=O)N2CCN(C(=O)c3ccco3)CC2)c1 | inconclusive [falling, single point] | 
Nc1c(C(=O)NCC2CCCO2)c2nc3ccccc3nc2n1Cc1ccco1 (stereo unspecified) |  | inactive: -19.8%
CCc1nnc(NC(=O)c2cc(-c3ccc(C)o3)nc3ccccc23)s1 | active: 4.78 µM | 
CCCCN1C(=O)/C(=C\c2ccco2)C(=O)N(CCc2ccccc2)C1=O | inconclusive [falling, single point] | 
O=C(c1ccccc1F)c1cn(Cc2ccccc2)c2ccccc12 |  | inactive: -11.5%
O=C1NC(=O)N(Cc2ccco2)C(=O)/C1=C/c1ccc(-c2cccc([N+](=O)[O-])c2)o1 |  | inactive: -27.1%
CCOc1ccc(N2C(=O)NC(=O)/C(=C\c3ccc(N4CCOCC4)cc3C)C2=O)cc1 |  | inactive: -28.3%
O=Cc1cn(Cc2cccc([N+](=O)[O-])c2)c2ccccc12 | inconclusive [falling, partial curve] | 
CN[C@@H]1C[C@@H](c2ccc(Cl)c(Cl)c2)c2ccccc21 | inconclusive [falling, single point] | 
O=C(O)CCN1C(=O)c2ccc(NC(=O)CSc3ccc(Cl)cc3)cc2C1=O | inconclusive [falling, partial curve] | 

SMILES | Potency | activity, negative = inhibition
CCOc1cccc(N2C(=O)/C(=C/c3ccco3)C(=O)NC2=S)c1 | inconclusive [falling, partial curve] | 
Cc1c(Br)c([N+](=O)[O-])nn1CC(=O)Nc1ccccn1 | active: 19 µM | 
CC(C)n1c(/C=C/[C@H](O)C[C@H](O)CC(=O)O)c(-c2ccc(F)cc2)c2ccccc21 | inconclusive [falling, single point] | 
O=C1NC(=O)C(=Cc2ccccc2Oc2ccc(F)cc2)C(=O)N1 |  | inactive: 2.8%
COc1ccc2[nH]c(C)c(CCN3CCC(=O)C(C)C3C)c2c1 (stereo unspecified) |  | inactive: 0.0556%
O=S(=O)(c1ccc2nc(COc3ccc(Cl)cc3Cl)[nH]c2c1)N1CCOCC1 | inconclusive [falling, partial curve] | 
Nc1cc(=O)[nH]c(SCC(=O)Nc2ccc(F)c(Cl)c2)n1 | inconclusive [falling, partial curve] | 
CN1C(=O)NC(=O)/C(=C\C=C\c2ccccc2[N+](=O)[O-])C1=O | inconclusive [activator, partial curve] | 
COC(=O)C1=C(c2ccc(OC(F)(F)F)cc2)C[C@@H]2CC[C@H]1N2C(=O)N1CCCCC1 |  | inactive: -11.2%
O=C(C(=O)N1CCOCC1)c1cn(CC(=O)N2CCc3ccccc3C2)c2ccccc12 | inconclusive [falling, partial curve] | 
CCc1ccc(N2C(=O)NC(=O)/C(=C\C=C\c3ccco3)C2=O)cc1 | inconclusive [falling, partial curve] | 
COc1ccc(CC2C(=O)N(C)C(=O)N(C)C2=O)c(OC)c1 | inconclusive [falling, single point] | 
Clc1ccc(COn2ccnc2)cc1Cl | inconclusive [falling, partial curve] | 
Cc1c(Br)c([N+](=O)[O-])nn1CC(=O)Nc1ccc(Cc2ccncc2)cc1 | active: 13.5 µM | 
CC(C)NC(=S)NNc1nc2ccccc2s1 | inconclusive [falling, full curve] | 
Nc1c(C(=O)NCCc2ccccc2)c2nc3ccccc3nc2n1CCN1CCOCC1 |  | inactive: -2.17%
O=NN(CCCl)C(=O)NCCCl | inconclusive [falling, single point] | 
CN1CN(c2cccc([N+](=O)[O-])c2)CN=C1N[N+](=O)[O-] | active: 26.9 µM | 
CCOP(=O)(OCC)OCC |  | inactive: -1.33%
NC(=O)Nc1ccc(C(=O)OCC(=O)Nc2ccc(Cl)cc2C(=O)c2ccccc2)cc1 |  | inactive: 9.55%
O=C(Cc1ccc(Br)cc1)N1CCN(Cc2ccccc2)CC1 |  | inactive: 5.42%
COC(=O)C1=C(c2ccc(OC(F)(F)F)cc2)C[C@@H]2CC[C@H]1N2C(=O)N1CCC(C)CC1 | inconclusive [falling, single point] | 
Cc1nn(CCC#N)c2c1P(=S)(N1CCCC1)OC(c1ccc(F)cc1)=N2 (stereo unspecified) | inconclusive [falling, single point] | 
Cc1cc(C)cc(NC(=O)CCNC(=O)N2C[C@H]3C[C@@H](C2)c2cccc(=O)n2C3)c1 |  | inactive: 2.38%
